In all, about 110,000 compounds were measured (“z-score”: median about -0.1, highest 2% from about 2 on). The list shows a part of the results.
molecular target: Metabotropic glutamate receptor 8 (Rattus norvegicus) (UniProt P70579); assay: rat mGluR8 modulators via GIRK flux, primary screen, cell-based, thallium flux, HTS (AID 488969); conditions: HEK293 rat mGluR8, GIRK (G protein-gated inwardly rectifying potassium channel) thallium flux, FluoZin2; at 10 µM; stronger effect = higher value; submaximal glutamate (EC20) added with thallium
UniProt P70579, sequence (P70579 whole entry, looked up): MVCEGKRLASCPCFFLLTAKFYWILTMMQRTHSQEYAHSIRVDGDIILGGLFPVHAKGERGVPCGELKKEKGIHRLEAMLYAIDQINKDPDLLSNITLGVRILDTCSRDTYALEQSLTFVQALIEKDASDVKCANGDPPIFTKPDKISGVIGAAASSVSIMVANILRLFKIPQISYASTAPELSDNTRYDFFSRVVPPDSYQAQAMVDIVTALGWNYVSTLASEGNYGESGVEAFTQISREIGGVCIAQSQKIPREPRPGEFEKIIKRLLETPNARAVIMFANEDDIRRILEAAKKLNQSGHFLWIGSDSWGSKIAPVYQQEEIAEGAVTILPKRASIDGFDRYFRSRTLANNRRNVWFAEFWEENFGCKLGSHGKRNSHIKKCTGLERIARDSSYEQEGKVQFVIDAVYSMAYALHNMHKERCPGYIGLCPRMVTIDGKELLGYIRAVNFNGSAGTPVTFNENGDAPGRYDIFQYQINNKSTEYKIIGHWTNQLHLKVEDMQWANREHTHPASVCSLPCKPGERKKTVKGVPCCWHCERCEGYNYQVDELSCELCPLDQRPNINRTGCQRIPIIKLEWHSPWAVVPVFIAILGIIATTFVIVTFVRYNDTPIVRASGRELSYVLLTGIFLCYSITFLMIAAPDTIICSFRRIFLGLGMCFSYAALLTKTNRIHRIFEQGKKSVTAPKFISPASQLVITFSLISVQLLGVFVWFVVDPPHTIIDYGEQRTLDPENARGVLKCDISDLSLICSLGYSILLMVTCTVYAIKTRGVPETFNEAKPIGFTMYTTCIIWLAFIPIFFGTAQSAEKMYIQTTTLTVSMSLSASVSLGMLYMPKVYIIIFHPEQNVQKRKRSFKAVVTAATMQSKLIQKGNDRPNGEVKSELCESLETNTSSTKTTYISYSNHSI

Row | SMILES | z-score
1 | Cc1cccc(C2=NC(C(F)(F)F)(C(F)(F)F)c3c(n(-c4ccc(F)cc4)c(=O)[nH]c3=O)N2)c1 | -0.097
2 | O=C(Cc1cccc2ccccc12)Nc1ccc(-c2cc3ccccc3oc2=O)cc1 | -0.0246
3 | CC(=O)Nc1ccc(NS(=O)(=O)c2cccc3ccccc23)cc1 | -0.54
4 | Brc1ccc2ncnc(NCc3ccccc3)c2c1 | -0.496
5 | Cc1cc(C)c(C(=O)c2ccc(C(=O)NC(C)(C)C)cc2)c(C)c1 | -0.0823
6 | CCCCS(=O)CC(COCc1ccccc1)OC(=O)CSc1nc(C)cc(C)n1 (stereo not drawn) | -0.998
7 | CCS(=O)(=O)NCCc1cc2c(OC)ccc(OC)c2[nH]c1=O | -0.412
8 | O=C(NCCCn1ccnc1)C(F)(F)C(F)(F)C(=O)NCCCn1ccnc1 | 0.569
9 | Cc1nc(C)c(C(=O)NNS(=O)(=O)c2ccc3ccccc3c2)s1 | -0.00313
10 | CC(=O)Nc1ccc(-c2nc3c(C)cccc3[nH]2)cc1 | -0.411
11 | O=C1Nc2cc(C(=O)N3CCOCC3)ccc2SC1N1CCOCC1 (stereo not drawn) | 0.448
12 | CC(C)COC(=O)n1c(=O)oc2cc(S(=O)(=O)N3CCCCC3)ccc21 | -0.55
13 | CCn1c2ccccc2c2cc(/C=N/NC(=O)c3cccc(C)c3)ccc21 | -0.0891
14 | Cc1ccc(CNC(=O)c2ccc3c(=O)n(CCCN4CCCC4=O)c(=S)[nH]c3c2)cc1 | -0.167
15 | O=C(CSc1ccc(Cl)cc1)Nc1ccc(NC(=O)c2ccco2)cc1 | -0.0431
16 | CCn1nc(C)c(/C=N/NC(=O)Cn2nc(C)cc2C)c1C | -0.232
17 | CCSc1nnc(-c2ccccc2NC(=O)CC)c(=O)[nH]1 | -2.6
18 | O=C(NCCc1cn2ccccc2n1)c1ccccc1F | 0.0227
19 | CCC(=Nc1ccc(N)cc1)C1=C(O)C(C(=O)OC)C(C)(C)CC1=O (stereo not drawn) | -0.114
20 | O=C(OCc1cc2ccccc2[nH]c1=O)c1ccco1 | -0.253
21 | CC1=C(C(=O)Nc2ccc(C)cc2C)C(c2cccs2)NC(=S)N1 (stereo not drawn) | -0.388
22 | CCOC(=O)c1cc(-c2ccccc2)n(CCC(=O)N2CCN(c3ccccc3OC)CC2)c1C | -0.823
23 | CCOc1ccc(-n2c(C)c(C(C)=O)c(C(C)=O)c2C)cc1 | 0.0135

Row | SMILES | z-score
24 | CCOC(=O)c1ccc(N=C2S/C(=C\c3cc(C)n(-c4cccnc4)c3C)C(=O)N2C)cc1 | -0.0958
25 | O=C1c2cccc(OCC(=O)N3CCCc4ccccc43)c2CCN1Cc1ccccc1 | -0.397
26 | Cc1cc(N2CCC(C(N)=O)CC2)nc(-c2ccccc2)n1 | -0.114
27 | Cc1ccc(C)c(NC(=S)N2CCCCCC2)c1 | 0.0187
28 | Cc1cc(C)n(/N=C\c2c(O)ccc3ccccc23)c(=O)c1C(N)=O | 0.178
29 | CC1=N/C(=C\c2ccc([N+](=O)[O-])cc2)C(=O)N1c1cc(Cl)ccc1C | 0.0291
30 | c1ccc(C2Nc3ccccc3-c3nc4ccccc4n32)nc1 (stereo not drawn) | -0.506
31 | CCOC(=O)c1ccc(NS(=O)(=O)CC)cc1 | -0.0325
32 | N#Cc1c(-c2ccccc2)cc(C2CC2)nc1SCC(=O)O | -0.746
33 | O=C(CSc1nnc(-c2cccs2)n1-c1ccccc1)NCc1ccco1 | -0.271
34 | COc1cc(/C=N/NC(=O)COc2ccccc2[N+](=O)[O-])ccc1OC(=O)c1ccco1 | 0.646
35 | CCC(CCC(=O)Nc1ccc(S(N)(=O)=O)cc1)C(=O)O (stereo not drawn) | 0.735
36 | Cc1ccc([N+](=O)[O-])c(OCCN2CCNCC2)c1 | -0.292
37 | COc1ccccc1Nc1nc(N)nc(CSC(=S)N2CCCCC2C)n1 (stereo not drawn) | 0.0526
38 | O=C(NCCN1CCOCC1)Nc1ccc(Cl)cc1 | 0.201
39 | CCSc1nnc(NC(=O)CSc2nnc(CNC(=O)c3ccc(OC)c(OC)c3)o2)s1 | -0.363
40 | COc1ccc(-n2c(Cc3cccs3)nnc2SCC(=O)Nc2ccc3c(c2)OCCO3)cc1 | -0.305
41 | CC(c1ccco1)N(C(=O)COc1ccccc1[N+](=O)[O-])c1ccccn1 (stereo not drawn) | 0.0781
42 | Cc1ccc(C(=O)c2ccc(C(F)(F)F)cc2)cc1 | 0.0388
43 | CC1=NN(c2ccccc2)C(=O)/C1=C\c1cc(C)n(-c2ccccc2)c1C | -0.234
44 | CCOC(=O)N1CCN(C(=O)c2cnn3c(C(F)F)cc(-c4ccc(C)cc4)nc23)CC1 | -2.42
45 | CCOc1cc(/C=N/NC(N)=S)cc(Br)c1OCc1ccccc1C | -0.205
46 | CCOC(=O)c1cnn(-c2nc(-c3ccc(C)cc3)cs2)c1C(F)(F)F | -0.287

Row | SMILES | z-score
47 | O=S(=O)(NC1CCCC1)c1ccc(S(=O)(=O)N2CCN(c3ccccc3)CC2)cc1 | 0.438
48 | CCN(CC)C(=O)C1=C(C)NC(=O)NC1c1ccccc1F (stereo not drawn) | 0.355
49 | COc1ccc(OC)c(C2C3=C(CC(C)(C)CC3=O)Nc3nnnn32)c1 (stereo not drawn) | -0.0729
50 | COc1ccc(CCN2C(=O)C3C4CC(C5C(C(=O)NN)=NOC45)C3C2=O)cc1OC (stereo not drawn) | 0.152
51 | Cc1cccnc1NC(=O)C1CCN(S(=O)(=O)c2ccc3c(c2)CCC(=O)N3)CC1 | -0.244
52 | CCOc1cc(Br)ccc1S(=O)(=O)N1CC(C)OC(C)C1 (stereo not drawn) | 0.199
53 | NC(=O)C(c1ccc(Sc2ccccc2)nn1)c1ccc(Cl)cc1Cl (stereo not drawn) | 0.0127
54 | O=C(C1CCN(S(=O)(=O)N2CCOCC2)CC1)N1CCN(Cc2ccc3c(c2)OCO3)CC1 | 0.59
55 | CNC(=O)CSc1nc2nn(-c3ccccc3)c(=O)c-2c2n1CCCCC2 | -0.295
56 | OC(Cc1cccnc1)(Cc1cccnc1)c1cc2ccccc2[nH]1 | -0.452
57 | CC(C)OCC(O)CS(=O)(=O)Cc1ccccc1 (stereo not drawn) | 0.622
58 | O=C(NC(=S)NC1CCS(=O)(=O)C1)c1cccs1 (stereo not drawn) | -0.0564
59 | O=C(c1ccc(F)cc1)N1CCCCC(Sc2nnc3ccccn23)C1=O (stereo not drawn) | 0.0592
60 | O=C(NCc1ccco1)c1ccccc1NS(=O)(=O)c1cccs1 | -0.617
61 | COc1ccc(N(C(=O)c2ccco2)S(=O)(=O)c2cc(OC)ccc2OC)cc1 | -0.34
62 | CCC(C)NS(=O)(=O)c1ccc(NC(=O)C(Sc2ccccc2)c2ccccc2)cc1 (stereo not drawn) | 0.666
63 | Cn1c(SCC(=O)Nc2nccs2)nnc1-c1ccncc1 | -0.256
64 | CC(=O)c1ccc(N=Cc2c(O)n(-c3cc(Cl)ccc3N3CCOCC3)c(=O)c3ccccc23)cc1 | -0.64
65 | CCN(Cc1ccccc1)C(=O)COc1cc(=O)n(CC)c2ccccc12 | -0.186
66 | O=C(c1ccc(N2CCCC2=O)cc1)N1CCCCCC1 | -0.268
67 | Cc1ccc2nc(SCC(=O)NCc3cccs3)c(C#N)cc2c1 | -0.0306
68 | NC(=O)c1c(NC(=O)COC(=O)CSc2nnc(-c3ccc(Cl)cc3)o2)sc2c1CCC2 | -0.775
